Some of the results follow.
B1: chr7:141445308:141445309:+_ENSG00000106028_ENST00000265304|hu_hu|hu_hu_hu_mus_False|8_8 (ssRNA)
RNA: GGGAGUUCUACAGUCCGACGAUCUAUGAUUGUUGUUGCUUGCCGCCUCACAUUGUUUUUAUCCAUGUACUCGCCAUAGUCCACUUUCCCUUCCACAAAUAUACGAGCCCCCUUUUUCACAUACUGAUAUGCCACGUCUCUGAGCAACAGAGGAUUGAGCAUCA
B2: 72476637_72486543_478_CDS_ENSMUSG00000020794_ENSMUST00000021148|mouse|control|control (ssRNA)
RNA: GGGAGUUCUACAGUCCGACGAUCCUCUGUAAUGAAUUUCAUUUUAGGAGGCCGGAGGGGAUAAUCUUUUGGGAAAGUGAGAUGAGCCUUAAAAACACCACCUUCAUAAAGUGUAUCUGGAGGACCAAUAAUAAGGACUUCCCACAACAGAGGAUUGAGCAUCA
B3: chr9:14120538:14120539:-_ENSG00000147862_ENST00000380959|hu_hu|FALSE|FALSE (ssRNA)
RNA: GGGAGUUCUACAGUCCGACGAUCCUUCAGAGUAUCCUGAGGAUUCAGGUGGGGAGGAUAUCUGAUUGUUGGAUGAGAAAAGUAGCUCGAUGGGGCUGGAGGAAGGAUAGCUUGUGUUGGAAAUGGCAACGGUGAAGGUGGAGGCAACAGAGGAUUGAGCAUCA
B4: chr4:132324321:132324322:+_ENSMUSG00000028884_ENSMUST00000102561|mus_mus|motif|central (ssRNA)
RNA: GGGAGUUCUACAGUCCGACGAUCCACAUCCUGGUCGCAGUUCUCCGGAGAGAGCGGCCCAAGACGCUCGGACACGAAAACGGAGAACACUUGGGAACUCUGUGCCGCUCUGGCGUGGCAGCCUUCUGGCUACUUUGCACUGGCCAACAGAGGAUUGAGCAUCA
B5: chr8:38067721:38067722:+_ENSG00000156735_ENST00000287322|hu_hu|FALSE|FALSE (ssRNA)
RNA: GGGAGUUCUACAGUCCGACGAUCUUUUUUAAUACUCGGAGGAGUACUUUCAUCUGAAGGUACACAUUCUUCAGGAAGACUGCUACUUUGAUCUUGAUUGUUGGGAUGGUCACUGGUGGCAUUACCAUACAGCUGAGGCUCAGCCAACAGAGGAUUGAGCAUCA
B6: chr7:140404665:140404666:+_ENSG00000090266_ENST00000247866|hu_hu|hu_hu_hu_mus_False|1_8 (ssRNA)
RNA: GGGAGUUCUACAGUCCGACGAUCUGCUCCUACUCGUCCAGAGAGUUUACAGUGUCAGUCCUCGUCAUCAGGAGGGAUUCCCAGUUCUUCAUCUGUCCACUGUGAAGGAUCUGGAUAUGAAAAGUGACCCAGCACCUCUUCUGACAACAGAGGAUUGAGCAUCA
B7: chr14:89338683:89338684:+_ENSG00000165533_ENST00000346301|hu_hu|hu_hu_hu_mus_False|98_108 (ssRNA)
RNA: GGGAGUUCUACAGUCCGACGAUCGUGGUUGUUGUUGACCAGAGCCAGCCUGAAGCAUUGGUGGGCCAAGUUUGUAUCUCCGAUUCCCACAGCUAUGUGCCCCAGGUUGUACCAGACAUCAGCUGCCUCUUCUUCAUUUUCAGCCAACAGAGGAUUGAGCAUCA
B8: chr1:163116471:163116472:-_ENSG00000143248_ENST00000313961|hu_hu|motif|central (ssRNA)
RNA: GGGAGUUCUACAGUCCGACGAUCUAUAAAAUACUUCAUUGUUGAUCUUAGGUCAUUGAUUUAAAACAGAAUUUGGUGACGGUGGGCAGGUGGAGGGGGCCAGUGAGGAAGGUAUAAAAGAGAAAUCUUUAUGAAUUGUGUUCACAACAGAGGAUUGAGCAUCA
B9: chr2:25103730:25103731:-_ENSMUSG00000006471_ENSMUST00000100329|mus_mus|FALSE|FALSE (ssRNA)
RNA: GGGAGUUCUACAGUCCGACGAUCCCAGCCCUUCUGCUCUAGCUUCUGCCAUUCAGUCUGCCAGUAGAAGUCCUGAUCCCGCUGGCGGCAGCCAAAGAACAAGAAGUUUCCAGUUUGGCCAUGAGCCACUCGUUCCUGAAUGGCCAACAGAGGAUUGAGCAUCA
B10: chr11:87793471:87793472:-_ENSMUSG00000020483_ENSMUST00000020775|mus_mus|mus_mus_mus_hu_False|18_98 (ssRNA)
RNA: GGGAGUUCUACAGUCCGACGAUCUGGACUUGAAAAUAAAAAAAAUAGCUGGAUCCCCCACCCCCCCACAUUGUCAACCCUACACGAGAGUUUUGAAGGCGACUCAUGAAAAUCAGCCUCAAUUGGCGCAAUGACCACCCCACCCAACAGAGGAUUGAGCAUCA
B11: chr3:150289777:150289778:+_ENSG00000144895_ENST00000460851|hu_hu|FALSE|FALSE (ssRNA)
RNA: GGGAGUUCUACAGUCCGACGAUCUUUGGCAGGCAUAAAACCAUAUACAGCACAAAACUCAGUAGAACUAGAAUUCCAAACUACAUCAUAAAUGGGGCCAUUUUUUGGUAAUUGCACUACAGCACUUUCUCCAUUUGUUGCAAUCAACAGAGGAUUGAGCAUCA
B12: chr1:58468927:58468928:-_ENSMUSG00000026034_ENSMUST00000148330|mus_mus|mus_mus_mus_hu_False|1_28 (ssRNA)
RNA: GGGAGUUCUACAGUCCGACGAUCAAUUACUGAAAAAGAUGUUCAUUACCUUAGCUAUGUACUUAAUGAACCAAAUUACCCAAACAAAAUAAACAUGGCAAUAUAAAAAGCUAUACAAUUUACAAAGCUGUACAAAAAGACUGACAACAGAGGAUUGAGCAUCA
B13: chr14:76904430:76904431:+_ENSMUSG00000022010_ENSMUST00000022587|mus_mus|mus_mus_mus_hu_True|8_78 (ssRNA)
RNA: GGGAGUUCUACAGUCCGACGAUCUGCAGCCAAAAACACCCUCGUGGAAAAAAAGAGCAAGCUCCAGCAGCCUUGUAUAAGCUAGAUAAAAUCUUCUGGCUUUCCGCAGCCCAGGGAGAAACAGAAAUGGUGCUGGCUAAUUUACAACAGAGGAUUGAGCAUCA
B14: 235951258_235951378_2309_CDS_ENSG00000130147_ENST00000392011|human|control|control (ssRNA)
RNA: GGGAGUUCUACAGUCCGACGAUCGCUGGACACCGGGCGGUCCUGGAAAGUCGGGUACUUUGUAGUGGUGGCAAACGGGGACAGGAUGAUUUUCCCGACUUCGUUCUUCUUGAGAAACCUCCUUUGCCCGGAAGGCUUGAUGGCCAACAGAGGAUUGAGCAUCA
B15: chr4:25749455:25749456:-_ENSG00000091490_ENST00000264868|hu_hu|hu_hu_hu_mus_False|38_98 (ssRNA)
RNA: GGGAGUUCUACAGUCCGACGAUCGCACUAUGACCUCCCCUAGAAAACACAGGGGGAAAAAAUGUAAACCAAUGUACAAUGUUAUCGCCUUCCCUGUAUUUCCAGGCUUUGUCUCAAGGCUCCUUCUAGCUGCUGGAUUUGGGACAACAGAGGAUUGAGCAUCA
B16: 98677862_98679720_10419_CDS_ENSMUSG00000048154_ENSMUST00000023741|mouse|control|control (ssRNA)
RNA: GGGAGUUCUACAGUCCGACGAUCGGCCUUUGCAAUAGGAUCAAUGAUGUCUUCUGCAGCAAAUUUGUCUAGGUCUGUGUCUGGGAAGAAACUAUUCGCCAGCUGCUGCUGCUGCAUCGCCAGCUGCUGGGGCUUCAUGCACAUCAACAGAGGAUUGAGCAUCA
B17: chr12:105536279:105536280:+_ENSG00000136051_ENST00000332180|hu_mus|hu_hu_hu_mus_True|1_18 (ssRNA)
RNA: GGGAGUUCUACAGUCCGACGAUCAGCACUGAACAUGUAAUGUAAUCUGGCUGCAUCGACAGCAUUUUCAUAUACAUCAUCUAAAUAAAUCGGGAAGACAGCGCGAUGCCAGUAUAAAAAACAACAGUCACACUGUGUUUGGACCAACAGAGGAUUGAGCAUCA
B18: 29435745_29437597_3071_CDS_ENSG00000153339_ENST00000582539|human|control|control (ssRNA)
RNA: GGGAGUUCUACAGUCCGACGAUCUGCAGUGUGUCUUAAUAUUCUGUGCCGUAUUUUUGGCUGCUUUUUGACACUUUCAUAGUAAAACAAAAAGUUAAUUUCAUGGACACCUUCUUCAUCAGGCCCACGUAACCACAUUGGCAGCAACAGAGGAUUGAGCAUCA
B19: chr4:39779992:39779993:+_ENSG00000078140_ENST00000510719|hu_hu|motif|central (ssRNA)
RNA: GGGAGUUCUACAGUCCGACGAUCCUCAGAAGCAAUUCUGUUGCAGUCUCUACAUCCCAUGAUUUUGAAGACAAGGCCACGGUUACUGCAUUCCUAUCAAAGCCCAUAGCACAUAGGUUUUCUAUUUUUUUGGUGUAUUCUGGACAACAGAGGAUUGAGCAUCA
B20: chr12:49579495:49579496:-_ENSG00000167552_ENST00000550767|hu_hu|motif|central (ssRNA)
RNA: GGGAGUUCUACAGUCCGACGAUCGGCUCCAUCAAAUCUCAGGGAAGCAGUGAUGGAGGACACAAUUUGACCUAUUAACCGGUUCAGGUUAGUAUAGGUUGGACGCUCAAUAUCGAGGUUUCUACGACAGAUGUCAUAGAUGGCCAACAGAGGAUUGAGCAUCA
B21: chr1:39494447:39494448:+_ENSG00000168653_ENST00000372967|hu_mus|hu_hu_hu_mus_False|88_98 (ssRNA)
RNA: GGGAGUUCUACAGUCCGACGAUCGCACCGAGCGGCGAUCUUGUAGGGCUGUUCACCGCUUAGGAACAUAAAGUGCCGGUCCAGGCUGAUGCCCAGCUUUUUCUGUAUGUCAAGGAAAGGCAUGGCUCUGCAGUGCCCUUGUCACAACAGAGGAUUGAGCAUCA
B22: chr2:85280848:85280849:+_ENSG00000176407_ENST00000409785|hu_hu|FALSE|FALSE (ssRNA)
RNA: GGGAGUUCUACAGUCCGACGAUCCAUGCAGUAGUUAAGGUAAACCAUCCAAGCAGUUUUUAUUCAUUAAUAUUCAUAAAUACACACAGCAGCUUCAUUAGAGAUUUCAAUUUUCCUCUUCAGUUUGAAUGUGGAGUAUUAGGACAACAGAGGAUUGAGCAUCA

biological target: T1, UNK ZnF1-3 (human, UniProt Q9C0B0 31-174); experiment: nsRBNS (natural sequence RNA bind-n-seq); RBNS binding buffer (assumed for nsRBNS): 25 mM Tris pH 7.5, 150 mM KCl, 3 mM MgCl2, 0.01% Triton X-100, 500 ug/ml BSA, 20 U/ml SUPERase-In, 4 C; UNK is unkempt and MSI1 is Musashi-1; names of the RNAs are library labels; protein concentration not given here; high values mean tight binding
T1 sequence: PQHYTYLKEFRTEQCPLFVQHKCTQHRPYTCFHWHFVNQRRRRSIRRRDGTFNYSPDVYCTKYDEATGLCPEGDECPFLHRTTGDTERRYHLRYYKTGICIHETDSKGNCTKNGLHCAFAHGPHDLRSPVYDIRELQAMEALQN

Which binding signal does the source give for B1 here?
The binding signal was 0.618 enrichment R.

With B2 as the binder, how does the binding signal read?
Its binding signal is 1.8 enrichment R.

With B3 as the binder, how does the binding signal read?
Its binding signal is 1.94 enrichment R.

For B4, which binding signal is on record?
Its binding signal is 0.687 enrichment R.

Which binding signal does the source give for B5 here?
The binding signal was 0.664 enrichment R.

How did the binding signal turn out when B6 was run?
Its binding signal is 1.19 enrichment R.

B7 was tested. Which binding signal did it give?
Its binding signal is 0.58 enrichment R.

Which binding signal does the source give for B8 here?
Its binding signal is 2.06 enrichment R.

For B9, which binding signal is on record?
The binding signal was 0.798 enrichment R.

For B10, which binding signal is on record?
Its binding signal is 2.89 enrichment R.

For B11, which binding signal is on record?
Its binding signal is 1.06 enrichment R.

For B12, which binding signal is on record?
The binding signal was 0.846 enrichment R.

Which binding signal does the source give for B13 here?
The binding signal was 2.11 enrichment R.

Which binding signal does the source give for B14 here?
The binding signal was 0.955 enrichment R.

With B15 as the binder, how does the binding signal read?
Its binding signal is 1.08 enrichment R.

Which binding signal does the source give for B16 here?
Its binding signal is 0.912 enrichment R.

With B17 as the binder, how does the binding signal read?
The binding signal was 1.79 enrichment R.

B18 was tested. Which binding signal did it give?
Its binding signal is 0.824 enrichment R.

For B19, which binding signal is on record?
Its binding signal is 0.776 enrichment R.

Which binding signal does the source give for B20 here?
Its binding signal is 0.82 enrichment R.

B21 was tested. Which binding signal did it give?
Its binding signal is 0.679 enrichment R.

Which binding signal does the source give for B22 here?
The binding signal was 1.34 enrichment R.
